# Source: PubChem BioAssay AID651582 (Sanford-Burnham Center for Chemical Genomics, 2012)
# Values joined by “and” are separate entries in the source; they are usually repeats but may differ in a detail not shown here. Identical values can stand only once. The list shows a part of the results. Further columns of the screen follow, without active or inactive calls. The list favours compounds with an active or inconclusive main result.
# Test: inhibitors of triacylglycerol accumulation, primary screen, cell-based, uHTS, fluorescence, H9c2 (AID 651582)
# Conditions: H9c2 cells, Nile Red lipid (TAG) fluorescence; measured here:; at 12.5 µM; cells loaded with 200 µM oleic acid
row,Compound,"DAPI nuclei signal change (viability), lower = more cytotoxic"
1,Cc1ccc(C(=O)OCC(=O)Nc2cccc(S(=O)(=O)NC3=NCCCCC3)c2)c(C)c1,-45.2%
2,CCOC(=O)c1cccc(Nc2nc(-c3cccnc3)nc3ccccc23)c1,2.75%
3,Cc1ccc2nc3n(c(=O)c2c1)-c1cc2ccccc2cc1C(=O)NC3Cc1ccc(O)cc1 (stereo unspecified),-33%
4,Cc1ccccc1OCCNc1cc(N2CC(C)NC(C)C2)ccc1[N+](=O)[O-] (stereo unspecified),-17.6%
5,COc1ccc(/C=C2/CCC(CN3CCOCC3)C2=O)cc1 (stereo unspecified),-44.8%
6,CC(=O)O[C@H]1C(=O)[C@]2(C)[C@H]([C@H](OC(=O)c3ccccc3)[C@]3(O)C[C@H](OC(=O)[C@H](O)[C@@H](NC(=O)c4ccccc4)c4ccccc4)C(C)=C1C3(C)C)[C@]1(OC(C)=O)CO[C@@H]1C[C@@H]2O,-36.3%
7,CCCCCc1cc(=O)oc2c(C(CCN(CC)CC)c3cc(OC)c(OC)c(OC)c3)c(OC)cc(OC)c12 (stereo unspecified),-43.8%
8,COc1ccccc1CNC(=O)Nc1nc(C(N)CCc2ccccc2)cs1 (stereo unspecified),-34%
9,Cc1cc(NC(=O)c2sccc2C)n(-c2nc3ccccc3[nH]2)n1,-5.55%
10,COc1cc(NC(=O)c2nccnc2N)cc(C(=O)Nc2cccc(C(F)(F)F)c2)c1,13.4%
11,O=C(O)c1ccc(N/N=C/c2ccc(-c3ccc(Cl)cc3Cl)o2)cc1,32.1%
12,O=C(Cc1ccccc1)Nc1nc(-c2cccs2)cs1,0.737%
13,COCCNc1nc(NCc2ccc(NC(C)=O)cc2)c2sc(-c3ccccc3)cc2n1,-34.4%
14,Cc1nn(-c2ccccc2)c(C)c1/C=N/NC(=O)c1cc(-c2ccccc2)n[nH]1,-14.2%
15,CC(=O)NC(c1cc(Cl)c2cccnc2c1O)C1CC1 (stereo unspecified),5.79%
16,Cc1nn(-c2ccc([N+](=O)[O-])cc2)c2c1C(c1ccc(OC(F)F)cc1)N1C(=N2)C(=O)Nc2ccccc21 (stereo unspecified),-0.725%
17,Cc1ccc(-c2cc(C(=O)N/N=C/c3c(C)nn(-c4ccccc4)c3C)[nH]n2)cc1,-35%
18,CC1CCN(c2cc(N3CCC(C)CC3)c([N+](=O)[O-])cc2/C=C(\C#N)c2nn(-c3ccccc3)c(N)c2C#N)CC1,-13.4%
19,CCC[C@@H](CNC)NC[C@H](Cc1ccccc1)NCCCCc1ccccc1,-39.9%
20,COCCCn1c(SCC(=O)Nc2nc3ccccc3s2)nnc1-c1ccoc1C,-11.6%
21,O=C(Cc1ccccc1)NC(Nc1cccc2ccccc12)C(Cl)(Cl)Cl (stereo unspecified),6.86%
22,O=[N+]([O-])c1ccc(Nc2nc(N/N=C\c3ccc4c(c3)OCO4)nc(N3CCCCC3)n2)cc1,-9.17%

row,Compound,"DAPI nuclei signal change (viability), lower = more cytotoxic"
1,CC1CC(C)CN(CC(=O)c2cccs2)C1 (stereo unspecified),-19.2%
2,CCCc1cc(C(=O)N/N=C/c2ccc(CC)s2)c2ccccc2n1,-25.4%
3,CC(=O)Nc1ccc(Oc2nc(-c3ccccn3)nc3ccccc23)cc1,-20.2%
4,COC(=O)[C@]1(CC(C)C)N[C@H](c2ccc(-c3cccc(Cl)c3)cc2)[C@@H]2C(=O)N(C)C(=O)[C@@H]21,-2.71%
5,Fc1ccc([C@@H]2CCNC[C@H]2COc2ccc3c(c2)OCO3)cc1,-12.9%
6,CN(C)CCCNC(=O)CC1C[C@H](C(=O)N2CCCCC2)[C@@]2(CCc3ccccc3)c3[nH]c4ccccc4c3CCN2C1=O (stereo partly specified),-30.2%
7,NC1=NC[C@H](Cc2ccccc2)N1CCc1cc(C(F)(F)F)cc(C(F)(F)F)c1,-11.2%
8,C=CCN1C(=O)/C(=C2/Sc3ccccc3N2C)SC1=Nc1ccccc1C,-9.6%
9,O=C(Nc1ccc2oc(-c3cccnc3)nc2c1)c1ccc([N+](=O)[O-])o1,-37.9%
10,Cc1ccc(/C=N/NC(=O)c2cc(-c3cccnc3)nc3ccccc23)cc1,-27.4%
11,O=C(CSc1nc2ccc(Nc3nc(N4CCOCC4)nc(N4CCOCC4)n3)cc2s1)Nc1ccccc1F,-4.87%
12,O=C1C=CC(=O)c2c(O)c(N3CCN(CCOCCO)CC3)c(Br)c(O)c21,-46.1%
13,C=CC(=O)N1C/C(=C/c2ccc(F)cc2)C(=O)/C(=C\c2ccc(F)cc2)C1,-47.7%
14,COc1ccc(CN(C)C[C@@H]2OCCCC[C@H](C)Oc3ccc(NC(=O)Nc4ccc(F)cc4)cc3C(=O)N([C@H](C)CO)C[C@H]2C)cc1,-26.8%
15,CNCCCN1c2ccccc2CCc2ccccc21,-29.8%
16,Cc1ccc(C(=O)Nc2cc(C)c(OCC(=O)N3CCOCC3)c(C)c2)cc1,-5.97%
17,Cc1cccc(N(Cc2ccccc2)C(=O)CCl)c1,-31.7%
18,CCOC(=O)c1[nH]c(C)c(C(=O)OC(C)C(=O)Nc2ncc(Cl)cc2Cl)c1C (stereo unspecified),-10.1%
19,CC(=O)Nc1ccc(SC[C@H](CC(C)C)N2CCN(CC(C)C)CCC2=O)cc1,-26.5%
20,Cc1ccc(C)c(N=Nc2ccc(O)c3ncccc23)c1,-32.1%
21,CN(C)CCNC(=O)c1cccc2ccc(-c3ccc(-c4ccccc4)cc3)nc12,173%
22,CCN1CCCC1CNC(=O)c1cc2c(-c3ccc(Cl)cc3)nn(C)c2s1 (stereo unspecified),55.6%

row,Compound,"DAPI nuclei signal change (viability), lower = more cytotoxic"
1,CCCCN1C2=C(C(=O)CCC2)C(c2ccc(Cl)c(Cl)c2)C2=C1c1ccccc1C2=O (stereo unspecified),-3.49%
2,CCN(CCCNC(=O)c1cn(CC)c2ccc(S(=O)(=O)N(C)C)cc2c1=O)c1cccc(C)c1,22.6%
3,Cc1ccc(-c2cc(C(F)F)n3ncc(C(=O)Nc4c(C)nn(Cc5c(Cl)cccc5Cl)c4C)c3n2)cc1,-45.7%
4,CC(C)(C)N1C(=O)[C@H]2[C@@H](c3ccc(Br)cc3)N3C(=O)N(c4ccc(Br)cc4)C(=O)[C@@]3(Cc3ccccc3)[C@H]2C1=O,0.139%
5,COc1ccccc1CNC(=O)/C=C/c1ccc(Br)o1,-39.1%
6,CN1C(=O)C(O)(CC(=O)c2ccccn2)c2cc(Br)ccc21 (stereo unspecified),-18.9%
7,S=C(NN=C(c1ccccc1)c1ccccn1)N(Cc1ccccn1)Cc1ccccn1,-41%
8,O=C(NC1CCCCC1)C(c1ccccc1)N(Cc1ccc2c(c1)OCO2)C(=O)c1cnsn1 (stereo unspecified),-10.6%
9,O=c1c(Br)c(Br)cnn1-c1ccccc1,-46%
10,Cc1[nH]c2c(C)cccc2c1CCNC(=O)c1ccc2c(c1[N+](=O)[O-])C(=O)c1ccccc1C2=O,-12.6%
11,CN(C)CCCNC(=O)C[C@H]1C[C@H](C(=O)N2CCCCC2)[C@@]2(C)c3[nH]c4cc(-c5ccco5)ccc4c3CCN2C1=O,-38.8%
12,COC(=O)Nc1nc(-c2ccccc2)c(C(=O)c2ccccc2)s1,-28.8%
13,COc1cc(C(=O)Nc2nc3ccc(C)cc3s2)ccc1OCc1c(C)noc1C,11.6%
14,O=C1C(NS(=O)(=O)c2cccs2)=C(N2CCN(c3cccc(Cl)c3)CC2)C(=O)c2ccccc21,-4.52%
15,CCOc1cc2[nH]c(=O)n(CCc3ccc(OC)c(OC)c3)c(=O)c2cc1OCC,2.85%
16,COc1ccc(Cn2c(SCc3ccccc3C)nc3cc(OC)c(OC)cc3c2=N)cc1,-23.1%
17,COC(=O)c1cc(C(=O)N2CCN(c3ccccc3OC)CC2)cc([N+](=O)[O-])c1,-40.6%
18,CCN(CC)c1ccc(/C=C2\CCC(/C=C(/C#N)C(=O)Nc3ccccc3F)=C2N2CCOCC2)cc1,-4.51%
19,CSc1cc(-c2ccccc2)n(Cc2c(Cl)cccc2Cl)c(=O)c1C#N,-28.5%
20,Fc1ccc(Oc2nc(-c3ccccn3)nc3ccccc23)cc1,-11.9%
21,COc1cccc(Nc2nc(C(N)Cc3ccc(C(F)(F)F)cc3)cs2)n1 (stereo unspecified),-42.5%
22,COc1ccc2nc(C)cc(N/N=C/c3ccccc3)c2c1,-0.472%

row,Compound,"DAPI nuclei signal change (viability), lower = more cytotoxic"
1,COc1ccc(NC(=O)C2(C)Cc3c(-c4cccc(C(N)=O)c4)ccnc3O2)cn1 (stereo unspecified),-34.5%
2,COc1ccc(OC)c(Nc2nc(-c3sc(NC(=O)CC(C)C)nc3C)cs2)c1,-1.28%
3,CCCC[C@H](CN[C@@H](CNC)[C@H](C)CC)NCCC12CCC(CC1)C2,-20.4%
4,CCOC(=O)C1CCCCN1C(=O)c1cc2ccc(OC)cc2c2cc(OC)c(OC)cc12 (stereo unspecified),7.05%
5,O=C(CSc1cccc2cccnc12)Nc1ccccc1F,-33.8%
6,COc1cc(OC)c2c(-c3ccccc3)cc(=O)oc2c1C(CCN1CCN(c2ccccc2)CC1)c1ccc(N(C)C)cc1 (stereo unspecified),6.31%
7,CCOC(=O)CN(C(=O)CSc1nnc2c(n1)[nH]c1ccccc12)c1ccccc1,-9.24%
8,CNC(=O)c1ccc(-c2sc3nc(N4CCOCC4)c4c(c3c2N)CCCC4)o1,45.9%
9,Cc1cc(N(CCO)CCO)ccc1N=Nc1cc(F)ccc1F,-5.39%
10,O=[N+]([O-])c1cccc(S(=O)(=O)N2CN(c3ccc(Br)cc3)c3nc4ccccc4nc32)c1,8.55%
11,c1ccc(CSC2=NNC(c3ccccn3)S2)cc1 (stereo unspecified),-18.2%
12,CCN1CCN(Cc2ccc(NC(=O)c3ccc(C)c(NC(=O)c4c[nH]c5cc(C(F)(F)F)ccc5c4=O)c3)cc2C(F)(F)F)CC1,-1.58% and -28.9%
13,Nc1ccc(C(=O)N/N=C\c2cc(N=Nc3cccc4ccccc34)ccc2O)cc1,-28%
14,O=C1/C(=C\c2ccc(Cl)c(Cl)c2)CN(C(=O)CCN2CCOCC2)C/C1=C/c1ccc(Cl)c(Cl)c1,-48.8%
15,Cc1nn2c(N3CCN(C)CC3)c3c(nc2c1-c1ccccc1)CCCC3,-32.7%
16,COCCN(Cc1ccccc1)C(=O)C1CCN(C(=O)Nc2ccccc2)CC1,-2.05%
17,O=C1c2ccc3c4c(ccc(c24)C(=O)N1c1cccc(O)c1)C(=O)N(c1cccc(O)c1)C3=O,-19.7%
18,CCOC(=O)c1sc2nc(CSc3ccccc3)nc(NCCN(C)C)c2c1C,-21.2%
19,COc1ccc2cc(Br)ccc2c1CC(=O)NC1CC(C)(C)NC(C)(C)C1,-15.3%
20,CC(=NNC(=S)N1CC2CCC(CC2)C1)c1cccc(C)n1,-35.6%
